Experimental data taken from publication PMC6418106.
Changes are numbered by the printed parent chain. Results are given in words; binding and its absence hold for the method and conditions named. In cells and extracts the contact can be indirect. Some entries that bind do so weakly or less than the wild type. Sequences can lack the tags named with a protein.

Amino acid sequences for entries named in this document (tags omitted). A change or cut given only in a name is not applied to a line headed by its entry.
UniProt P36000: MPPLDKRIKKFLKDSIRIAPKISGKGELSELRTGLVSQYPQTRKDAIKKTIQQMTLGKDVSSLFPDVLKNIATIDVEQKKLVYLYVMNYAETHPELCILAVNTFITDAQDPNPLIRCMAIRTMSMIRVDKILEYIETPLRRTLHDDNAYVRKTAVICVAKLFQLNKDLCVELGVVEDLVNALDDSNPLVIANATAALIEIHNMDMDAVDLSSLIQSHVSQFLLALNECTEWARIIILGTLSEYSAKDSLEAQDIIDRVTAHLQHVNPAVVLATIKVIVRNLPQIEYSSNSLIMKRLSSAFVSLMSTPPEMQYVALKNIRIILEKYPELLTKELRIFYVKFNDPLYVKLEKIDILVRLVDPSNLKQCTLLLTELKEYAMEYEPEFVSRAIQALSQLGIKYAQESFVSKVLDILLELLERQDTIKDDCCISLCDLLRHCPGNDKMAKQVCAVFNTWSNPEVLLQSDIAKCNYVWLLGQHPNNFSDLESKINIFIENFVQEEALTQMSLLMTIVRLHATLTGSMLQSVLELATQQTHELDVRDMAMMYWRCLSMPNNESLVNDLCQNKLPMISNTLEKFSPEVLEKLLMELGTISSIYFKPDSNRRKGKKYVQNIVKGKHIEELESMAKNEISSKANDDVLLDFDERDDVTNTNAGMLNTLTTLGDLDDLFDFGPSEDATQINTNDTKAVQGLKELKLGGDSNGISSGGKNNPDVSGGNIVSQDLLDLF
UniProt P27351: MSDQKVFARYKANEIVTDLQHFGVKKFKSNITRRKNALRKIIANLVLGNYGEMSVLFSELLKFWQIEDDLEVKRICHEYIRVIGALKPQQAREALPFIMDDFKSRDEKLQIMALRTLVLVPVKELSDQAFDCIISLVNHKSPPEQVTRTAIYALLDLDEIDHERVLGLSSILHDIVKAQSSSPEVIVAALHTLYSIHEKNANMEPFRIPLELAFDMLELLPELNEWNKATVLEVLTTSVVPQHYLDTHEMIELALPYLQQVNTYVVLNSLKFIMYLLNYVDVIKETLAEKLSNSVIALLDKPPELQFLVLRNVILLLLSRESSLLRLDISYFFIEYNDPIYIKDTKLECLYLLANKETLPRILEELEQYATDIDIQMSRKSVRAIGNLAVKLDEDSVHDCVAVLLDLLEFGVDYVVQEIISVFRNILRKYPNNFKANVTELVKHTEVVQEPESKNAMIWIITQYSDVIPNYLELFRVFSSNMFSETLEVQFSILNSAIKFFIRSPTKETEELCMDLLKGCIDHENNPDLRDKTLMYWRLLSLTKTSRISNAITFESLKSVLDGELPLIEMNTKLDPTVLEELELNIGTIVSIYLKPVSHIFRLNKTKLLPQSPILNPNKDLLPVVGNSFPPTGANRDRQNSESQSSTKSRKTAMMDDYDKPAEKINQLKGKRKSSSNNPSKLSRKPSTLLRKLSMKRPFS

Key:
Test in all cases: co-IP; 3xFLAG-Irc6 WT or mutants precipitated from yeast spheroplast lysates with ANTI-FLAG M2 magnetic beads (2 h, 4 °C; 20 mM HEPES pH 7.0, 125 mM KAc, 0.4 M sorbitol, 0.1% Triton X-100, 2 mM MgCl2, 0.5 mM EGTA), eluted with 3xFLAG peptide; blots with antibodies to β1 (AP-1), β2 (AP-2) and FLAG
[1] = target: T1, 3xFLAG-Irc6 Y236* (mutant #42, lacks the terminal two residues) (S. cerevisiae) (UniProt P43615)
T1 sequence: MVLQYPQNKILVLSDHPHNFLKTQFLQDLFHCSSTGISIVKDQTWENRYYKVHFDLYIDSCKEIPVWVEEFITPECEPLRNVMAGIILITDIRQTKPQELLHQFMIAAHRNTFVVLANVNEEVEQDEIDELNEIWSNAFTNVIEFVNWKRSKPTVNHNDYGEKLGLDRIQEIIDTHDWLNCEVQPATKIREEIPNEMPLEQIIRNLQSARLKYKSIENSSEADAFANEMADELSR

[2] = target: T2, 3xFLAG-Irc6 YY-AA mutant (BC-YY motif tyrosines 49 and 50 to alanine) (S. cerevisiae) (UniProt P43615)
T2 sequence: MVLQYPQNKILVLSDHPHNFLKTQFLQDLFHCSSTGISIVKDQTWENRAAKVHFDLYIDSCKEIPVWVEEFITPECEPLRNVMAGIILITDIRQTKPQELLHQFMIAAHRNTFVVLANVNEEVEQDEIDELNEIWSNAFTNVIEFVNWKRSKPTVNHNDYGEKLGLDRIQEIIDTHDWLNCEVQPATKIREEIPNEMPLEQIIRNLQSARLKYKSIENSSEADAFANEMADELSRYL

[3] = target: T3, 3xFLAG-Irc6 wild type (aa1-237) (S. cerevisiae) (UniProt P43615)
T3 sequence: T2 sequence with A49Y, A50Y

binding [1]	binding [2]	binding [3]	Substance
no binding	binds	binds	clathrin adaptor complex AP-1 (from UniProt P36000 1-726; Q12028 1-832; Q00776 1-475; P35181 1-156)
no binding	binds	binds	clathrin adaptor complex AP-2 (from UniProt P27351 1-700; P38065 1-1025; Q99186 1-491; Q00381 1-147)
